# From PubChem BioAssay AID1963576 (National Center for Advancing Translational Sciences (NCATS), 2024)
# The whole screen tested about 46,000 compounds, of which about 60 (0.1%) were called active. Roughly 3% stayed inconclusive and do not appear here. Calls come from the whole dose curve; as a rule, active = well fitted inhibition curve with a large enough effect; inconclusive = small, poorly fitted or top-dose-only effect; inactive = no such curve, though single readings can be large or run the other way. The list shows a part of the results.
# Experiment: Primary qHTS assay for Inhibitors of ovarian cancer metastasis using an organotypic tumor microenvironment (TME) model.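 For activity change, negative = inhibition: plate controls were DMSO wells for no effect and tomatine positive control wells for full effect.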 Note: nearly all actives have a fitted effect of over 65% in size.
# Conditions: SKOV3ip1-GFP adhesion/invasion on 3D omental model, fluorescence; series mostly up to 45.8 µM; activity change, negative = inhibition: at the top concentration
# Method in brief: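 Primary human omental fibroblast/mesothelial 3D culture pre-formed 48 h. SKOV3ip1-GFP cells added with compounds (0.36-46 umol/L), incubated 2 h RT/16 h 37 C, fixed; GFP cells quantified at 488/509 nm.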
Compound,"activity change, negative = inhibition",outcome
CCCCOc1ccc(CNC(=O)CN2C(=O)CCn3nc(-c4cn(C)c5ccccc45)cc32)cc1,inactive: -4.5%,–
CCC1CN(C(=O)NCc2ccc(F)cc2)c2cc(Cl)ccc2O1 (centres undefined),inactive: 9.45%,–
CC(C)c1ccc(NC(=O)Cc2ccc(NC(=O)N3CCCCc4ccccc43)cc2)cc1,inactive: -13.5%,–
COc1ccc(C2CC(=O)c3cc(-c4nc(-c5ccc(C)cc5)cs4)c(=O)[nH]c3C2)cc1 (centres undefined),inactive: 1.39%,–
CCOC(=O)c1c(C)[nH]c(C)c1S(=O)(=O)N(C)CC(=O)NCc1ccc(C)cc1,–,inactive
CCOc1cccc(CNC(=O)c2ccc(N3CCCC3)c(NC(=O)Nc3ccccc3CC)c2)c1,inactive: -5.31%,–
COc1ccc(-c2nn(-c3ccc(C)c(Cl)c3)c3c2cnc2cc(OC)c(OC)cc23)cc1,–,inactive
Nc1nc(Nc2cccc(Cl)c2)sc1C(=O)c1ccc(F)cc1,inactive: -17.2%,–
CCOc1ccc(/C=C/C(=O)Nc2sc3c(c2C(=O)OC)CCCC3)cc1,inactive: -12.1%,–
COc1ccc(S(=O)(=O)NCCc2csc(-c3cccc(F)c3)n2)cc1OC,inactive: 0.987%,–
CCn1cc(S(=O)(=O)c2ccc(OC)cc2)c(=O)c2cc(F)c(N3CCCCCC3)cc21,–,inactive
COc1cc(OC)c(NC(=O)CC(C)S(=O)(=O)c2ccc3c(c2)NC(=O)CO3)cc1Cl (centres undefined),inactive: 2.44%,–
CCc1ccc2oc(-c3cccc(NC(=O)COc4ccccc4Cl)c3)nc2c1,inactive: -4.12%,–
CCOc1ccc2nc(N3CCCC(C(=O)Nc4ccc(CC)cc4)C3)sc2c1 (centres undefined),inactive: -8.55%,–
CCC(Oc1ccccc1)C(=O)Nc1cc(-c2ccccc2F)nn1-c1ccccc1 (centres undefined),inactive: 2.87%,–
CCN(CC)S(=O)(=O)c1ccc2c(c1)N(CC(=O)NCCc1ccccc1)C(=O)CO2,inactive: 5.51%,–
CCN1CCN(c2nc3c(S(=O)(=O)c4ccc(C)cc4)nnn3c3ccsc23)CC1,–,inactive
CCCCNC(=O)CCn1nc(-c2ccc(Cl)cc2)c2ccccc2c1=O,inactive: 4.21%,–
CCCCOc1ccc(CNC(=O)c2cnc3sc(N4CCCCCC4)nn3c2=O)cc1,inactive: 24.4%,–
Cc1c(C(=O)NCc2cccc(F)c2)oc2c1-c1[nH]ncc1CC2,–,inactive
CC(=O)OCCN1C(=O)c2c(C)nc3ccc(S(=O)(=O)N4CCOCC4)cc3c2C1=O,inactive: -13.6%,–
Cc1cccc(C(=O)n2nc(-c3cccnc3)nc2NCc2ccc(F)cc2)c1,inactive: -2.76%,–
Cc1ccc(NC(=O)Cn2c(=O)nc(-c3ccccc3)c3ccccc32)cc1,inactive: 5.62%,–
CCN(CC)C(=O)c1ccc2c(c1)N(Cc1ccccc1F)C(=O)c1ccccc1S2=O (centres undefined),inactive: -8.48%,–

Compound,"activity change, negative = inhibition",outcome
COc1cc(NC(=O)C(CC(C)C)N2Cc3ccccc3C2=O)cc(OC)c1 (centres undefined),inactive: -16.2%,–
CCOc1ccc(NC(=O)CSc2nc3ccsc3c(=O)n2CC)cc1,inactive: -14.5%,–
CCC(=O)N1CCc2cc(S(=O)(=O)NC(Cc3ccccc3)C(=O)NCc3ccccc3OC)ccc21 (centres undefined),inactive: 0.465%,–
CC(C)(C)c1ccc(C(=O)Nc2ccc(NC(=O)c3ccc(Cl)c(Cl)c3)cc2)cc1,–,inactive
Cc1cccc(NC(=O)c2ccc3[nH]c(C)cc(=O)c3c2)c1,inactive: 0.451%,–
Cn1c(=O)[nH]c(=O)c2c1nc(CN1CCN(c3ccccc3)CC1)n2Cc1c(F)cccc1Cl,–,inactive
COc1ccc(-c2cc(C)no2)cc1S(=O)(=O)N1CCCC(C)C1 (centres undefined),inactive: -1.29%,–
COc1cccc(NC(=O)Nc2ccc3snnc3c2)c1,–,inactive
COc1ccc(NC(=O)c2nnn(CC(=O)Nc3cccc(C)c3C)c2N)c(OC)c1,inactive: -10.4%,–
Cn1c(=O)n(C)c2cc(N3CCOCC3)c(NC(=O)c3ccc(C(C)(C)C)cc3)cc21,inactive: 4.47%,–
CCOCCCn1c(SCC(=O)NCc2ccccc2)nc2c(sc3ccccc32)c1=O,–,inactive
CCn1cc(C(=O)NCCN(CC(C)C)CC(C)C)c(=O)c2cc(S(=O)(=O)N(C)C3CCCCC3)ccc21,–,inactive
COc1ccc2cc3cc(C(=O)N4CCN(c5cccc(C(F)(F)F)c5)CC4)sc3nc2c1,inactive: 10.7%,–
COc1cc([N+](=O)[O-])ccc1NC(=O)N1CCC2(CC1)Nc1ccccc1-n1cccc12,–,inactive
COc1ccc(-c2nc3sc(CCNC(=O)C(=O)Nc4cc(F)ccc4F)c(C)n3n2)cc1,inactive: 0.733%,–
COc1ccccc1CNc1nc2ccccc2c2nc(-c3cccc(C)c3)nn12,inactive: 2.11%,–
Cc1cccc(CCNC(=O)c2cc3c(=O)[nH]c4ccc(C)cc4c3s2)c1,inactive: 2.87%,–
Cc1cccc(NC(=O)CN(C)S(=O)(=O)c2ccc3c(c2)CCC(=O)N3)c1C,inactive: 0.473%,–
CCOc1ccc(C(=O)Nc2cccc(NC(=O)c3ccc(Cl)cc3Cl)c2)cc1,–,inactive
CCCCOc1ccccc1Cn1c(=O)sc2ccccc21,inactive: -17.3%,–
Cc1c(C(=O)Nc2ccc(F)cc2)oc2ccc(S(=O)(=O)N3CCCCCC3)cc12,inactive: -15.6%,–
Cc1cccc(Nc2cc(C)nc(-n3nc(C)cc3C)n2)c1,inactive: 6.58%,–
CCOc1ccc(CN2C(=O)C(=O)c3cccc(C)c32)cc1OC,inactive: -5.06%,–
Cc1cccc(C(=O)N2c3ncnn3C3(CCCCC3)[C@@H]3CCCC[C@@H]32)c1,inactive: 1.95%,–

Compound,"activity change, negative = inhibition",outcome
CSc1ccc(CNC(=O)c2sc3ncnc(N(C)C4CCCCC4)c3c2C)cc1,inactive: -17.6%,–
CCc1cccc(N2C(=O)CS(=O)(=O)C23C(=O)N(Cc2ccccc2)c2ccc(C)cc23)c1 (centres undefined),–,inactive
Cc1ccc(Nc2nc3ccccc3nc2-n2nc(C)cc2C)c(Cl)c1,inactive: -10.1%,–
COc1ccc(-c2cc(C(F)(F)F)n3ncc(-c4ccccc4)c3n2)cc1,–,inactive
COC(=O)c1ccc2c(=O)n(CCc3ccc(S(N)(=O)=O)cc3)c(SCC(=O)C(C)(C)C)nc2c1,inactive: -0.7%,–
Cc1cc(C)c(NC(=O)C2CCN(C(=O)N3CCOc4ccccc43)CC2)c(C)c1,–,inactive
COc1cc2c(cc1NC(=O)COc1ccc(Br)cc1)oc1ccccc12,–,inactive
CCOC(=O)c1cccc(NS(=O)(=O)c2ccc(-c3coc(C)n3)cc2)c1,–,inactive
Cc1ccc(N2CCN(Cc3nnc(-c4ccccc4F)o3)CC2)c(C)c1,inactive: 0.0273%,–
Cc1ccc(S(=O)(=O)CC(=O)Nc2nc3c(C)cccc3s2)cc1,inactive: -3.56%,–
Cc1ccc(-c2c3c(=O)n(C)c(=O)n(C)c3c3cnc4ccccc4n23)cc1,inactive: 4.09%,–
COc1ccc(-c2[nH]c3c(c2-c2c(-n4cccc4)n(C)c(=O)[nH]c2=O)c(=O)[nH]c(=O)n3C)cc1F,inactive: -3.68%,–
COc1ccc(-n2nnc(-c3nsc(NC(=O)c4cccc(C)c4)n3)c2C)cc1OC,inactive: -17.1%,–
COc1ccccc1Nc1nc(N)nc(N)c1S(=O)(=O)c1ccccc1,inactive: 5.97%,–
O=C(Nc1ccc(Cl)c(C(F)(F)F)c1)c1nc2ccccc2nc1N1CCCCC1,inactive: 6.89%,–
Fc1ccc(C(NCCc2ccc(Cl)cc2)c2nnc(-c3ccccc3Cl)o2)cc1 (centres undefined),inactive: 2.37%,–
CC(=O)N1CCc2cc(Br)cc(S(=O)(=O)NCCc3cccc(C)c3)c21,–,inactive
CCOc1ccc(NC(=O)CCc2c(C)nc3nc(-c4cc(OC)cc(OC)c4)nn3c2C)cc1,inactive: 2.5%,–
COc1cccc(NC(=O)/C(C#N)=C/c2c(C)n(Cc3ccccc3)c3ccccc23)c1,–,inactive
CCOC(=O)c1c(C)[nH]c(C)c1S(=O)(=O)N1CCCC(C(=O)Nc2cccc(CC)c2)C1 (centres undefined),–,inactive
COC(=O)c1ccccc1NC(=O)c1nn(C)c2c1COc1ccccc1-2,inactive: -29.1%,–
CCN1CCN(c2ncc3c(n2)CCN(Cc2cccc(F)c2F)C3)CC1,inactive: 12.1%,–
CSc1ncc(Cl)c(C(=O)N(C)c2ccccc2)n1,inactive: 4.6%,–
Cn1c(SCC(=O)Nc2nc3ccccc3s2)ncc(C(=O)Nc2ccc(Cl)cc2)c1=O,inactive: -1.33%,–

Compound,"activity change, negative = inhibition",outcome
Nc1nc(NCCNc2ncc(-n3ccnc3)c(-c3ccc(Cl)cc3Cl)n2)ccc1[N+](=O)[O-],inactive: -7.11%,–
COc1cccc(NC(=O)Cn2nnc(C(=O)NCc3ccc4c(c3)OCO4)c2N)c1,inactive: -20.8%,–
CCOCCCNC(=O)c1cn(CC(C)C)c(=O)c2c1c1ccccc1n2C,inactive: 1.97%,–
COc1ccccc1Nc1ncc2c(n1)CCN(Cc1cc(F)cc(F)c1)C2,inactive: -8.67%,–
CN(C)c1cc(NC(=O)CNC(C)(C)C)c(O)c2c1C[C@@H]1C[C@H]3[C@H](N(C)C)C(=O)C(C(N)=O)=C(O)[C@@]3(O)C(=O)C1=C2O,inactive: -0.22%,–
Cc1cc(C)c(NC(=O)CSc2nc(=O)n(Cc3cccnc3)c3c2CCC3)c(C)c1,inactive: 3.57%,–
COc1ccc(S(=O)(=O)N2CCC(n3c(C)nc4cccnc43)CC2)cc1Cl,inactive: -2.3%,–
CCCC(=O)N1c2ccccc2-c2nnc(SC)nc2OC1c1sccc1C (centres undefined),inactive: 1.21%,–
CN(C)c1ccc(CNC(=O)Cn2c(-c3cccs3)cc3cc(Cl)ccc32)cc1,inactive: 4.41%,–
CCc1ccc(S(=O)(=O)Nc2cc3c(cc2C)n(C)c(=O)c(=O)n3C)cc1,inactive: 0.314%,–
CCOC(=O)c1c(NC(=O)COc2ccc(Cl)cc2Cl)sc2c1CCCCC2,inactive: 8.24%,–
CC(Oc1ccccc1)C(=O)Nc1c(C(=O)Nc2cccc(F)c2)oc2ccccc12 (centres undefined),–,inactive
Cc1ccc(C)c(N2CCN(S(=O)(=O)c3cc(C(=O)Nc4ccccc4C(F)(F)F)ccc3F)CC2)c1,inactive: 7.21%,–
CCN(CC)S(=O)(=O)c1ccc(NC(=O)c2c(C)oc3ncnc(N4CCCCC4)c23)cc1,–,inactive
O=c1c2oc3ccccc3c2n(Cc2ccccc2F)c(=O)n1Cc1ccc2c(c1)OCO2,–,inactive
Nc1c(-c2nc(-c3ccccc3Cl)no2)nnn1-c1ccccc1C(F)(F)F,inactive: -10%,–
COc1ccccc1NC(=O)N1CCN(c2nnc(C)c3c(C)n(-c4ccccc4)nc23)CC1,–,inactive
CC1=C(c2ccc(C)c(C)c2)S(=O)(=O)N=C1N1CCC(C(=O)NCc2ccc(N(C)C)cc2)CC1,inactive: -6.37%,–
Cc1ccc(-c2nnc(SCC(=O)NCc3ccccc3)o2)cc1,inactive: -15.9%,–
CCN(CC)CCN(C(=O)c1ccco1)c1nc2ccc(F)cc2s1,inactive: 5.78%,–
COc1ccc(CNC(=O)c2cnn(-c3ccccc3)c2-n2cccc2)cc1OC,inactive: 1.51%,–
COc1ccc(N2CCN(C(=O)CSc3nc(-c4ccccc4)no3)CC2)cc1,inactive: 2.87%,–
